Where “and” joins values, the source holds several entries; their conditions need not be identical. Identical values can stand only once. This list was built around the results that the source calls inconclusive (neither active nor inactive); the mix of calls is not that of the screen. Potencies of inconclusive entries are doubtful fits and often do not repeat. Calls of active or inactive are those of the source. The call rests on the fitted dose curve; in most records, active means well fitted curve in the direction sought with a large enough effect; inconclusive means small, poorly fitted or top-dose-only effect, or another doubt; inactive means no such curve, though single readings can be large; an effect the other way counts as inactive or inconclusive.
Assays:
[1] = test system: Zika virus NS2B-NS3 protease (linked construct); experiment: Primary screen NINDS Rhodamine qHTS for Zika virus inhibitors (AID 1347160); conditions: purified NS2B-NS3 protease, Rhodamine110 substrate fluorescence; activity change, negative = inhibition: at 57.1 µM (top of the series) unless noted; series mostly up to 57.1 µM; further: nearly all actives have a fitted effect of over 55% in size
Method in brief: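 Percent inhibition, normalized to uninhibited and enzyme-free controls, is fitted to a 4-parameter Hill equation. Fluorescence change comes from a 15-min cleavage of 1.5 microM bis-peptide Rhodamine110 substrate by 25 nM linked NS2B-NS3 at room temperature.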

CRL-7250 = normal cell line; experiment: Cytotoxic Profiling of Annotated Libraries Using Quantitative High-Throughput Screening (AID 1296008); conditions: Five cell lines viability, CellTiter-Glo ATP luminescence, 48-72 h; max response: active compounds read low; further: nearly all actives have a fitted effect of over 60% in size; on max response: on the % scale 0 is the no-effect control and ±100 the full control effect
Method in brief: (§1)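 Cytotoxicity was measured as CellTiter-Glo ATP luminescence, read after 10 min at room temperature. Compound treatment of the cells lasted 48 or 72 hr at 37 degrees Celsius in a qHTS format.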

KB-3-1 = experiment: as above; conditions: Five cell lines viability, CellTiter-Glo ATP luminescence, 48-72 h; max response: active compounds read low
Method in brief: as §1

C33A = experiment: Primary qHTS to identify gynecologic anti-cancer compounds using libraries of approved drugs and bioactive compounds (AID 1345084); conditions: Gynecologic cancer cell panel viability, ATPlite luminescence, 48 h; series mostly up to 57.5 µM; further: nearly all actives have a fitted effect of over 55% in size; on activity change, negative = cytotoxicity: on the % scale 0 is the no-effect control and ±100 the full control effect
Method in brief: (§2)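 Five-concentration response, 48 h; readout is ATP-driven luciferase luminescence.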

CAOV3 = experiment: as above; conditions: Gynecologic cancer cell panel viability, ATPlite luminescence, 48 h; activity change, negative = cytotoxicity: at 57.5 µM (top of the series)
Method in brief: as §2

CASKI = experiment: as above; conditions: Gynecologic cancer cell panel viability, ATPlite luminescence, 48 h; series mostly up to 57.5 µM
Method in brief: as §2

Hek293T = experiment: as above; conditions: Gynecologic cancer cell panel viability, ATPlite luminescence, 48 h, control line for the selectivity index; activity change, negative = cytotoxicity: at 57.5 µM (top of the series) unless noted
Method in brief: as §2

PA-1 = experiment: as above; conditions: Gynecologic cancer cell panel viability, ATPlite luminescence, 48 h; series mostly up to 57.5 µM
Method in brief: as §2

SKOV3 = experiment: as above; conditions: Gynecologic cancer cell panel viability, ATPlite luminescence, 48 h; series mostly up to 57.5 µM
Method in brief: as §2

Tov-21-G = experiment: as above; conditions: Gynecologic cancer cell panel viability, ATPlite luminescence, 48 h; activity change, negative = cytotoxicity: at 57.5 µM (top of the series) unless noted
Method in brief: as §2

Tov112D = experiment: as above; conditions: Gynecologic cancer cell panel viability, ATPlite luminescence, 48 h; series mostly up to 57.5 µM
Method in brief: as §2

[2] = test system: Zika virus NS2B-NS3 protease (unlinked complex); experiment: Primary screen GU Rhodamine qHTS for Zika virus inhibitors: Unlinked NS2B-NS3 protease assay (AID 1347159); conditions: Recombinant ZIKV NS2B-NS3 protease, Rhodamine110 substrate fluorescence; series mostly up to 107 µM; further: nearly all actives have a fitted effect of over 60% in size
Method in brief: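 Compounds, tested up to 114 microM, were incubated for 15 minutes with 25 nM unlinked NS2B-NS3 protease at pH 8.0. Cleavage of 1.5 microM Rhodamine110 substrate was then followed by fluorescence for 15 minutes.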

[3] = Primary qHTS for inhibitors of nuclear receptor binding SET domain protein 2 (NSD2) in an isogenic RCH-ACV NSD2 p.E1099K mutant (9B) (AID 1645876); conditions: RCH-ACV NSD2 E1099K (9B) viability, CellTiter-Glo, 72 h; series mostly up to 44.9 µM; further: nearly all actives have a fitted effect of over 70% in size
Es-2 = experiment: Primary qHTS to identify gynecologic anti-cancer compounds using libraries of approved drugs and bioactive compounds (AID 1345084); conditions: Gynecologic cancer cell panel viability, ATPlite luminescence, 48 h; series mostly up to 57.5 µM; further: nearly all actives have a fitted effect of over 55% in size; on activity change, negative = cytotoxicity: on the % scale 0 is the no-effect control and ±100 the full control effect
Method in brief: as §2

JEG-3 = experiment: as above; conditions: Gynecologic cancer cell panel viability, ATPlite luminescence, 48 h; series mostly up to 57.5 µM
Method in brief: as §2

OV90 = experiment: as above; conditions: Gynecologic cancer cell panel viability, ATPlite luminescence, 48 h; series mostly up to 57.5 µM
Method in brief: as §2

[4] = P-glycoprotein substrates identified in KB-8-5-11 adenocarcinoma cell line, qHTS therapeutic library screen (AID 1346987); conditions: KB-8-5-11 (P-gp overexpressing) viability, CellTiter-Glo, 72 h; series mostly up to 44.5 µM; further: nearly all actives have a fitted effect of over 65% in size
Method in brief: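 KB-8-5-11, a colchicine-selected P-gp-overexpressing KB-3-1 subline, was grown without colchicine for the assay. Cells were seeded at 500 cells/well, dosed in concentration-response and incubated 72 h at 37 degree C, 5% CO2. Viability was read by CellTiter-Glo luminescence.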

[5] = Primary qHTS for inhibitors of nuclear receptor binding SET domain protein 2 (NSD2) in an RCH-ACV wild type WT cells (2C) (AID 1645877); conditions: RCH-ACV (leukaemia line) NSD2 WT (2C) viability, CellTiter-Glo, 72 h; activity change, negative = cell killing: at 44.9 µM (top of the series) unless noted; series mostly up to 44.9 µM; further: nearly all actives have a fitted effect of over 70% in size
[6] = Primary fluorescence-based thiol-reactive (MSTI) qHTS assay for identification of artifact compounds. (AID 1845221); conditions: MSTI thiol-reactivity probe, 1 h; series mostly up to 53.8 µM;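 further: thiol-reactive compounds lower the probe fluorescence signal; nearly all actives have a fitted effect of over 65% in size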
Method in brief: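 In PBS pH 7.4 with 2% DMSO, each compound met 4 uM MSTI for one hour at ambient temperature, shielded from light, before fluorescence detection.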

NIH3T3 = experiment: Cytotoxic Profiling of Annotated Libraries Using Quantitative High-Throughput Screening (AID 1296008); conditions: Five cell lines viability, CellTiter-Glo ATP luminescence, 48-72 h; max response: active compounds read low; further: nearly all actives have a fitted effect of over 60% in size; on max response: on the % scale 0 is the no-effect control and ±100 the full control effect
Method in brief: as §1
Potency means the concentration at half of the fitted maximal effect; tags describe the fitted curve by direction and shape.

Cc1cc(NC(=O)c2cccc(NC(=O)/C=C/CN(C)C)c2)ccc1Nc1nccc(-c2cccnc2)n1
inactive: Potency [1]
inconclusive: Potency (CRL-7250) 18.4 µM [inhibitor, single point] | Potency (KB-3-1) 29.1 µM [inhibitor, single point] | Potency (C33A) 25.1 µM [cytotoxic, single point] | Potency (CAOV3) 3.55 µM [cytotoxic, partial curve, poor fit] | Potency (CASKI) 17.8 µM [cytotoxic, single point] | Potency (Hek293T) 25.1 µM [cytotoxic, single point] | Potency (PA-1) 35.5 µM [cytotoxic, single point] | Potency (SKOV3) 39.8 µM [cytotoxic, single point] | Potency (Tov-21-G) 22.4 µM [cytotoxic, partial curve] | Potency (Tov112D) 39.8 µM [cytotoxic, single point]

C[C@@H]1O[C@@H](O[C@H]2[C@H](O[C@H]3CO[C@@H](O[C@H]4CC[C@@]5(C)C(CC[C@]6(C)C5CC[C@]57OC[C@@]8(CC[C@](C)(CO)CC85)[C@H](O)C[C@]76C)C4(C)C)[C@H](O[C@@H]4O[C@H](CO)[C@@H](O)[C@H](O)[C@H]4O)[C@H]3O)O[C@H](CO)[C@@H](O)[C@@H]2O)[C@H](O)[C@H](O)[C@H]1O (stereo partly specified)
inconclusive: Potency [2] 15.8 µM [inhibitor, partial curve, poor fit] | Potency [1] 5.52 µM [inhibitor, single point]
inactive: outcome [3] inactive [at 9.23 µM] | max response (CRL-7250) -17.3% | max response (KB-3-1) 5.69% | activity change, negative = cytotoxicity (CAOV3) -8.26% [at 11.6 µM]

CCOC(=O)Nc1cc(-c2ccc(C)c(NS(C)(=O)=O)c2)nn2c(C)nnc12
inconclusive: Potency (C33A) 39.8 µM [cytotoxic, single point] | Potency (CAOV3) 2.82 µM [cytotoxic, full curve, poor fit] | Potency (CASKI) 12.6 µM [cytotoxic, partial curve, poor fit] | Potency (Hek293T) 8.91 µM [cytotoxic, partial curve] | Potency (JEG-3) 31.6 µM [cytotoxic, single point] | Potency (Tov-21-G) 25.1 µM [cytotoxic, single point] | Potency (Tov112D) 12.6 µM [cytotoxic, partial curve]
active: Potency (CRL-7250) 7.31 µM | Potency (KB-3-1) 10.3 µM | Potency (Es-2) 12.6 µM | Potency (OV90) 12.6 µM | Potency (PA-1) 31.6 µM | Potency (SKOV3) 7.08 µM

COc1cc(O)c2c(c1)/C=C/C[C@H](O)[C@H](O)C(=O)/C=C\C[C@H](C)OC2=O
active: Potency [4] 9.2 µM and 8.2 µM | Potency [3] 2.06 µM and 2.58 µM | Potency (CRL-7250) 16.4 µM | Potency (CAOV3) 22.4 µM | Potency (Es-2) 15.8 µM | Potency (Hek293T) 15.8 µM | Potency (PA-1) 14.1 µM | Potency (Tov-21-G) 17.8 µM
inactive: Potency (JEG-3)
inconclusive: Potency [2] 100 µM [inhibitor, single point] | Potency (KB-3-1) 29.1 µM [inhibitor, single point] | Potency (C33A) 39.8 µM [cytotoxic, single point] | Potency (CASKI) 35.5 µM [cytotoxic, single point] | Potency (OV90) 11.2 µM [cytotoxic, partial curve, poor fit] | Potency (SKOV3) 12.6 µM [cytotoxic, partial curve, poor fit] | Potency (Tov112D) 25.1 µM [cytotoxic, single point]

CC(C)C[C@H](C(=O)O)c1cc(-c2ccc(C(F)(F)F)cc2)cc(-c2ccc(C(F)(F)F)cc2)c1
inactive: Potency (C33A)
inconclusive: Potency [4] 18.4 µM [inhibitor, single point] | Potency [2] 1.58 µM [inhibitor, full curve, poor fit] | Potency (CRL-7250) 29.1 µM [inhibitor, single point] | Potency (KB-3-1) 23.1 µM [inhibitor, single point] | Potency (CAOV3) 39.8 µM [cytotoxic, single point] | Potency (Hek293T) 15.8 µM [cytotoxic, partial curve] | Potency (OV90) 39.8 µM [cytotoxic, partial curve, poor fit] | Potency (PA-1) 31.6 µM [cytotoxic, single point]
active: Potency [5] 11.5 µM

C[C@H](NCc1ccc(OCc2cccc(F)c2)cc1)C(N)=O
active: Potency (KB-3-1) 9.35 µM
inconclusive: Potency [4] 33.2 µM [inhibitor, single point] | Potency (CRL-7250) 0.526 µM [inhibitor, partial curve, poor fit]

O=C(O)[C@H](Cc1ccc(Nc2nccc3ccncc23)cc1)NC1=C(Br)C(=O)C12CCCCC2
inactive: Potency [5] | Potency [6] | outcome (KB-3-1) | Potency (PA-1)
inconclusive: Potency [2] 44.7 µM [inhibitor, partial curve, poor fit] | Potency [1] 17.8 µM [inhibitor, single point] | Potency (CRL-7250) 14.6 µM [inhibitor, single point] | Potency (NIH3T3) 7.31 µM [inhibitor, partial curve]

Cc1cc2nc(NCCCO)n(CC(=O)c3cc(C(C)(C)C)c(O)c(C(C)(C)C)c3)c2cc1C
inconclusive: Potency [5] 12.9 µM [inhibitor, partial curve] | Potency [6] 2.67 µM [inhibitor, full curve] | Potency (CRL-7250) 20.6 µM [inhibitor, single point] | Potency (KB-3-1) 29.1 µM [inhibitor, single point] | Potency (C33A) 17.8 µM [cytotoxic, partial curve, poor fit] | Potency (SKOV3) 35.5 µM [cytotoxic, single point]
active: Potency [4] 18.4 µM

CN(C)CC1CCn2c(c(C3=C(c4cn(C)c5ccccc45)C(=O)NC3=O)c3ccccc32)C1 (stereo unspecified)
active: Potency [3] 7280 nM | Potency (CAOV3) 22.4 µM | Potency (OV90) 12.6 µM
inactive: Potency (Hek293T)
inconclusive: Potency (CRL-7250) 29.1 µM [inhibitor, single point] | Potency (KB-3-1) 20.6 µM [inhibitor, single point] | Potency (C33A) 39.8 µM [cytotoxic, single point] | Potency (CASKI) 28.2 µM [cytotoxic, single point] | Potency (Es-2) 22.4 µM [cytotoxic, single point] | Potency (PA-1) 31.6 µM [cytotoxic, single point] | Potency (SKOV3) 39.8 µM [cytotoxic, single point] | Potency (Tov-21-G) 39.8 µM [cytotoxic, single point]

CC(=O)NC(C(=O)O[C@H]1CCC(C)(C)[C@@H]2CC=C3C(=O)OCC3(O)[C@@]12C)C(C)C (stereo partly specified)
inactive: Potency [6] | Potency (CASKI)
inconclusive: Potency (CRL-7250) 10.1 µM [inhibitor, single point] | Potency (KB-3-1) 12.8 µM [inhibitor, single point] | Potency (C33A) 10 µM [cytotoxic, partial curve, poor fit] | Potency (OV90) 14.1 µM [cytotoxic, single point] | Potency (PA-1) 28.2 µM [cytotoxic, single point] | Potency (SKOV3) 0.891 µM [cytotoxic, full curve, poor fit]

CO/N=C(\C(=O)N[C@@H]1C(=O)N2C(C(=O)O)=C(CSc3nc(=O)c(O)nn3C)CS[C@H]12)c1csc(N)n1
inactive: max response (CRL-7250) 1.86% | max response (KB-3-1) -0.48% | Potency (SKOV3)

CCCCNc1ncc2c(-c3ccc(CN4CCN(C)CC4)cc3)cn(C3CCC(O)CC3)c2n1 (stereo unspecified)
active: Potency [4] 1.3 µM | Potency (CRL-7250) 5.17 µM | Potency (KB-3-1) 1.03 µM | Potency (PA-1) 6.31 µM | Potency (SKOV3) 3.55 µM | Potency (Tov-21-G) 7.94 µM
inconclusive: Potency [3] 205 nM [inhibitor, full curve] | Potency [6] 8.44 µM [inhibitor, partial curve] | Potency (CAOV3) 8.91 µM [cytotoxic, partial curve, poor fit] | Potency (CASKI) 3.55 µM [cytotoxic, full curve, poor fit] | Potency (Es-2) 14.1 µM [cytotoxic, partial curve] | Potency (OV90) 1.78 µM [cytotoxic, full curve] | Potency (Tov112D) 2.82 µM [cytotoxic, full curve]

CN(C)CCC(CSc1ccccc1)Nc1ccc(S(=O)(=O)NC(=O)c2ccc(N3CCN(Cc4ccccc4-c4ccc(Cl)cc4)CC3)cc2)cc1[N+](=O)[O-] (stereo unspecified)
inconclusive: Potency [4] 23.1 µM [inhibitor, single point] | Potency [1] 3.16 µM [inhibitor, full curve] | Potency (CRL-7250) 20.6 µM [inhibitor, partial curve] | Potency (KB-3-1) 29.1 µM [inhibitor, single point] | Potency (CAOV3) 11.2 µM [cytotoxic, partial curve, poor fit] | Potency (CASKI) 1.26 µM [cytotoxic, full curve, poor fit] | Potency (OV90) 14.1 µM [cytotoxic, partial curve] | Potency (SKOV3) 28.2 µM [cytotoxic, single point]
active: Potency [2] 7.94 µM | Potency [3] 916 nM | Potency [6] 2.12 µM

Source: PubChem BioAssay (NCATS)
